Laboratory results as given in article PMC4336329 (PLoS ONE, 2015).
Screen size: about 310,000 compounds; about 2,200 (0.71%) showed an effect of 50% or more. Effects have a minus sign here. This is one part of the list.

The compounds below were run against human ether-à-go-go-related gene (hERG) potassium channel (human, UniProt Q12809) (assay: primary screen, population patch clamp on CHO cells stably expressing hERG).
Sequence of human ether-à-go-go-related gene (hERG) potassium channel (Q12809 whole entry, looked up): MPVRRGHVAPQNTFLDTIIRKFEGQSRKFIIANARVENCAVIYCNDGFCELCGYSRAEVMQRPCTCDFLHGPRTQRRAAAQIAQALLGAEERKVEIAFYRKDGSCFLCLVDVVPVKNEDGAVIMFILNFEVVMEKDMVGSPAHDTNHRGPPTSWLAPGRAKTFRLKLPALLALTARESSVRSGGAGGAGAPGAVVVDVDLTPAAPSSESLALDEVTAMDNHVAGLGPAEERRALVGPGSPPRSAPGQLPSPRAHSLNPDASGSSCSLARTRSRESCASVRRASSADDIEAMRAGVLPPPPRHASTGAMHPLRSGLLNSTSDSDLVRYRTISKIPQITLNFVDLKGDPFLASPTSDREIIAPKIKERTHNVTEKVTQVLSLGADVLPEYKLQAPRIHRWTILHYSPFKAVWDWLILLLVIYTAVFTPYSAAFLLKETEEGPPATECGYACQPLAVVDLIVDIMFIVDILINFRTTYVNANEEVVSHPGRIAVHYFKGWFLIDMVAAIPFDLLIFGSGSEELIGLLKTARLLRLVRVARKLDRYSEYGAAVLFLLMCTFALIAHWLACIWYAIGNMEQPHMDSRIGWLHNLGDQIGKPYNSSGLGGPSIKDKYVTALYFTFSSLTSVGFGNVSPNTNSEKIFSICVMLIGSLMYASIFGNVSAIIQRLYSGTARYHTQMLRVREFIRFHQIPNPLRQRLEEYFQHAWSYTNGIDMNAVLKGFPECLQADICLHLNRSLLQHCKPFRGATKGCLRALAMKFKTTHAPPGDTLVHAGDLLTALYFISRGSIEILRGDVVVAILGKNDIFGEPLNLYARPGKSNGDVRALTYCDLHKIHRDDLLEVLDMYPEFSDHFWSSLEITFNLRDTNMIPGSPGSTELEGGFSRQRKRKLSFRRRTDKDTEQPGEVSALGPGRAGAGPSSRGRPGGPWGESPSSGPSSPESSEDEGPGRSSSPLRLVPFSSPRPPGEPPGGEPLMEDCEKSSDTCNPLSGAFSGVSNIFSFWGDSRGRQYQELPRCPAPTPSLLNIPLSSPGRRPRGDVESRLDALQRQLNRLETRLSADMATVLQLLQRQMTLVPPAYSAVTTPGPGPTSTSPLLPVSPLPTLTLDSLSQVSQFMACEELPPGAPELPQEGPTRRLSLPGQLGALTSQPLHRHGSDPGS
With `Cc1cccc(-n2c(SCC(=O)c3c(N)n(C4CC4)c(=O)[nH]c3=O)nnc2N2CCOCC2)c1` the “hERG current change (%, negative = inhibition) at 1uM” value was 9.07%.
In the case of `C=CCSc1nc2ccccc2n1C(=O)/C=C/c1cc(OC)c(OC)c(OC)c1`, the “hERG current change (%, negative = inhibition) at 1uM” value is reported as 8.24%.
`O=C(c1ccc2c(c1)OCCO2)C1CCN(C(=O)c2ccc(F)c(F)c2)CC1` was tested, and the “hERG current change (%, negative = inhibition) at 1uM” value was 2.71%.
In the case of `O=C(NC(Cc1ccccc1)C(=O)N1CCN(S(=O)(=O)c2ccccc2F)CC1)c1ccccc1` (stereo not shown), the “hERG current change (%, negative = inhibition) at 1uM” value is reported as 11.7%.
For `Cc1cc(C)nc(/N=c2/ssnc2Cl)c1`, the “hERG current change (%, negative = inhibition) at 1uM” value was -2.66%.
For `CCOC(=O)c1ccc2nc(NC(=O)c3cccs3)sc2c1`, the “hERG current change (%, negative = inhibition) at 1uM” value was 8.7%.
`CCN(CC(=O)Nc1ccccc1C(F)(F)F)C(=O)c1ccc(=O)n(Cc2ccccc2)n1` was tested, and the “hERG current change (%, negative = inhibition) at 1uM” value was -2.63%.
For `O=C(O)C(=O)O.O=S(=O)(c1ccccc1)N1CCN(CC2CC3C=CC2C3)CC1` (stereo not shown), the “hERG current change (%, negative = inhibition) at 1uM” value was 3.05%.
`CCOC(=O)C1CCCN(Cc2c(F)cccc2Cl)C1` (stereo not shown) was tested, and the “hERG current change (%, negative = inhibition) at 1uM” value was -6.01%.
In the case of `CC(=O)NCCC(=O)Nc1cc(S(=O)(=O)N2CCOCC2)ccc1Oc1ccccc1`, the “hERG current change (%, negative = inhibition) at 1uM” value is reported as 10.7%.
In the case of `CCc1sc(NC(=O)CN2CCOCC2)nc1-c1ccccc1`, the “hERG current change (%, negative = inhibition) at 1uM” value is reported as 5.32%.
In the case of `COc1ccc(C#Cc2c(-c3ccc(OC)cc3)oc3ccc(-c4ccc(OC)cc4)cc23)cc1`, the “hERG current change (%, negative = inhibition) at 1uM” value is reported as 3.27%.
`O=CN1CCN(C2CC(=O)N(c3ccc4c(c3)OCO4)C2=O)CC1` (stereo not shown) was tested, and the “hERG current change (%, negative = inhibition) at 1uM” value was 9.67%.
For `CC(=O)N1CCN(S(=O)(=O)c2cccc(C(=O)Nc3nc4ccccc4[nH]3)c2)CC1`, the “hERG current change (%, negative = inhibition) at 1uM” value was 15.3%.
`CCOC(=O)[C@H]1[C@H]2COc3cc(OC)ccc3[C@@H]2N2C(=O)c3cc(F)c(F)cc3NC(=O)[C@@]12C` was tested, and the “hERG current change (%, negative = inhibition) at 1uM” value was 6.58%.
In the case of `O=C(COc1ccccc1)N(Cc1ccco1)C1CCS(=O)(=O)C1` (stereo not shown), the “hERG current change (%, negative = inhibition) at 1uM” value is reported as -0.714%.
In the case of `CN(C)c1ccc(C(=O)Nc2nnc(C3=COCCO3)o2)cc1`, the “hERG current change (%, negative = inhibition) at 1uM” value is reported as 8.48%.
For `CCC(C(=O)Nc1ccc(S(=O)(=O)Nc2ncccn2)cc1)c1ccccc1` (stereo not shown), the “hERG current change (%, negative = inhibition) at 1uM” value was 12.7%.
With `Cc1ccc(/C=N/NC(=O)c2c[nH]c3ccccc23)o1` the “hERG current change (%, negative = inhibition) at 1uM” value was 13.5%.
`O=C(Cc1ccc([N+](=O)[O-])cc1)Nc1ccc(Br)cn1` was tested, and the “hERG current change (%, negative = inhibition) at 1uM” value was 3.47%.
In the case of `Cc1sc(Cc2nc(O)cs2)nc1-c1ccccc1`, the “hERG current change (%, negative = inhibition) at 1uM” value is reported as 16.6%.
With `COC(=O)c1ccccc1NC(=O)N1CCc2ccc(NC(=O)c3ccccn3)cc2C1` the “hERG current change (%, negative = inhibition) at 1uM” value was 4.89%.
`Cc1cc(=O)oc2c3c(cc(OCC(=O)NCc4ccccc4)c12)OC(C)(C)CC3` was tested, and the “hERG current change (%, negative = inhibition) at 1uM” value was 2.04%.
In the case of `Cl.c1ccc(C2CCC(N3CCNCC3)CC2)cc1` (stereo not shown), the “hERG current change (%, negative = inhibition) at 1uM” value is reported as -4.05%.
`N#CCCN(Cc1ccccc1)S(=O)(=O)c1cccs1` was tested, and the “hERG current change (%, negative = inhibition) at 1uM” value was 8.93%.
For `C=CCOc1ccc(/C(CC)=N/O)cc1OC`, the “hERG current change (%, negative = inhibition) at 1uM” value was 13%.
For `N#CCSc1nc2ccc(N3CCOCC3)cc2c(=O)n1CCc1ccccc1`, the “hERG current change (%, negative = inhibition) at 1uM” value was 3.24%.
In the case of `COc1ccc(CNCCc2ccc([N+](=O)[O-])cc2)c(OC)c1OC.O=C(O)C(=O)O`, the “hERG current change (%, negative = inhibition) at 1uM” value is reported as -49.4%.
`CC(=O)Nc1ccc(N/C=C/C(=O)c2ccc(C)o2)cc1` was tested, and the “hERG current change (%, negative = inhibition) at 1uM” value was 11.7%.
For `COc1ccccc1/C=N/NC(=O)CCn1cnc2ccccc21`, the “hERG current change (%, negative = inhibition) at 1uM” value was 9.63%.
`CC(C)(C)c1ccc(NC(=O)c2cc[n+]([O-])cc2)cc1` was tested, and the “hERG current change (%, negative = inhibition) at 1uM” value was 11.6%.
With `Cc1ccc(NC(=O)C(C)SCc2nc3sc4c(c3c(=O)[nH]2)CCCC4)nc1` (stereo not shown) the “hERG current change (%, negative = inhibition) at 1uM” value was 3.05%.
`Cc1cccc(-n2c(SCC(=O)Nc3nnc(C)s3)nnc2-c2ccoc2C)c1` was tested, and the “hERG current change (%, negative = inhibition) at 1uM” value was -8.46%.
With `C=CCn1c(COc2ccc(Cl)cc2)nnc1SCC(=O)N1CC(=O)Nc2ccccc21` the “hERG current change (%, negative = inhibition) at 1uM” value was -7.22%.
With `COc1c(O)cc2c(c1O)[C@@H]1O[C@H](CO)[C@@H](O)[C@H](O)[C@H]1OC2=O` the “hERG current change (%, negative = inhibition) at 1uM” value was 12.8%.
In the case of `O=C(NCc1ccco1)/C(=C\c1cccc([N+](=O)[O-])c1)NC(=O)c1ccco1`, the “hERG current change (%, negative = inhibition) at 1uM” value is reported as -29.9%.
With `COc1ccc(C2Nc3ccccc3C(=O)N2Cc2ccccc2)cc1CN1CCOCC1` (stereo not shown) the “hERG current change (%, negative = inhibition) at 1uM” value was -12.5%.
In the case of `C/C(=N\NC(=O)C1CC1)c1ccccc1Br`, the “hERG current change (%, negative = inhibition) at 1uM” value is reported as 15%.
For `CCCn1c(=O)c(C(=O)Nc2cccc(C)c2)c(O)c2ccccc21`, the “hERG current change (%, negative = inhibition) at 1uM” value was 6.52%.
With `C=CCN(C(=O)C1CC(=O)N(C2CCCC2)C1)c1nc(-c2ccc(S(C)(=O)=O)cc2)cs1` (stereo not shown) the “hERG current change (%, negative = inhibition) at 1uM” value was 8.45%.
In the case of `O=C(O)c1ccn(CSc2cc(Cl)ccc2Cl)n1`, the “hERG current change (%, negative = inhibition) at 1uM” value is reported as 10.4%.
`COc1ccc(NC(=O)N2CCN(C(=O)Nc3ccc(OC)cc3)CC2)cc1` was tested, and the “hERG current change (%, negative = inhibition) at 1uM” value was 11%.
For `Cn1c(SCc2ccccc2Cl)nc2ccccc21`, the “hERG current change (%, negative = inhibition) at 1uM” value was 13.6%.
In the case of `Cc1ccc(-c2ccc(/C=N/N3C(=O)C4C5C=CC(C6CC56)C4C3=O)o2)c([N+](=O)[O-])c1` (stereo not shown), the “hERG current change (%, negative = inhibition) at 1uM” value is reported as 3.7%.
In the case of `O=C(O)CSCC(=O)Nc1ccccn1`, the “hERG current change (%, negative = inhibition) at 1uM” value is reported as 13.5%.
For `CC[C@H](C)C(N)c1cn([C@@H](CC(N)=O)C(=O)N2CCNCC2)nn1` (stereo partly shown), the “hERG current change (%, negative = inhibition) at 1uM” value was -7.01%.
`Cc1cccc(C(=O)OCC(=O)N2CCCC2=O)c1[N+](=O)[O-]` was tested, and the “hERG current change (%, negative = inhibition) at 1uM” value was -3.24%.
`COc1ccc(C(=O)NCCNC(=O)c2cnccn2)cc1OC` was tested, and the “hERG current change (%, negative = inhibition) at 1uM” value was 16.2%.
In the case of `CC(C)=CCC/C(C)=C/CC/C(C)=C/CC/C(C)=C/CC1=C(C)C(=O)c2ccccc2C1=O`, the “hERG current change (%, negative = inhibition) at 1uM” value is reported as 12.3%.
With `CCCCOC(=O)c1ccc(NC(=O)c2cnc3n(c2=O)CCS3)cc1` the “hERG current change (%, negative = inhibition) at 1uM” value was 7.18%.
`CCc1cc(-c2nnc(SCC(=O)NC3CC3)n2C)cs1` was tested, and the “hERG current change (%, negative = inhibition) at 1uM” value was 5.22%.
`Fc1ccccc1NC(=S)N1CCN(c2ccccn2)CC1` was tested, and the “hERG current change (%, negative = inhibition) at 1uM” value was 16.9%.
In the case of `CCOc1ccc(Br)cc1S(=O)(=O)Nc1cccc(S(=O)(=O)NC2=NCCC2)c1`, the “hERG current change (%, negative = inhibition) at 1uM” value is reported as 10.7%.
With `O=C(O)c1cccc(Nc2nc(Nc3ccccc3)nc(N3CCCC3)n2)c1` the “hERG current change (%, negative = inhibition) at 1uM” value was 12.4%.
With `Cc1ccc2c(c1)c1c(n2CC(O)CN2CCCCCC2)CCCC1.Cl` (stereo not shown) the “hERG current change (%, negative = inhibition) at 1uM” value was -2.41%.
